{"source": "PubChem BioAssay AID2675", "about": "(National Center for Advancing Translational Sciences (NCATS), 2010)", "note": "Screen size: about 280,000 compounds; about 100 (0.036%) were called active. Inconclusive means that the source gave no clear call. Such entries were picked first, then a sample of the others. The call rests on the fitted dose curve; in most records, active means well fitted inhibition curve with a large enough effect in the signal ratio, with a control signal flat (not every such curve was filed as active); inconclusive means small, poorly fitted or top-dose-only effect, or effect the other way, or a change in a side signal; inactive means no such curve, though single readings can be large or run the other way; the % refers to the signal ratio. A potency beside an inconclusive call is a rough fit, not a confirmed value. “Side channel” marks fits to a control or component signal instead of the main read-out. On the % scale 0 is the no-effect control and ±100 the full control effect; potency means the concentration at half of the fitted maximal effect; tags describe the fitted curve by direction and shape or compound fluorescence and quenching."}
{"target": "Muscleblind-like protein 1 (Homo sapiens) (UniProt Q9NR56)", "sequence (Q9NR56 whole entry, looked up)": "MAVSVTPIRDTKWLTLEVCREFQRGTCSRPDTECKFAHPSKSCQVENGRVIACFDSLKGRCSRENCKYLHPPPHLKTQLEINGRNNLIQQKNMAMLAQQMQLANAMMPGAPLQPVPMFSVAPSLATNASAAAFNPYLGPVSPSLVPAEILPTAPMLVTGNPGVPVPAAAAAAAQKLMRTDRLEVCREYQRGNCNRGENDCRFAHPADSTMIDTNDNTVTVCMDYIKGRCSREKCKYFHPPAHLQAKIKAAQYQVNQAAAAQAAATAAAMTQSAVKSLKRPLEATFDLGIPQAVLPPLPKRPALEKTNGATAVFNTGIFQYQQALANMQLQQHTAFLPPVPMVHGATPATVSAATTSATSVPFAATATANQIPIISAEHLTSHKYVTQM", "assay": "qHTS Assay for Inhibitors of MBNL1-poly(CUG) RNA binding", "settings": "TR-FRET MBNL1-His/biotin-(CUG)12 binding, 665/545 ratio; activity change, negative = inhibition: at 57.5 µM (top of the series)", "outline": "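Ratiometric TR-FRET (665 over 545 nm, excitation 340 nm) tracks disruption of MBNL1-His/biotin-(CUG)12 complex after 60 min at room temperature, with compounds at 92 nM to 58 uM final.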"}
{"molecule": "COc1ccc(-c2cc(C(=O)NCCN3CCOCC3)c3ccccc3n2)cc1OC", "Potency": "inconclusive: 31.6 µM [quencher, side channel, partial curve]"}
{"molecule": "Cc1c(N=Cc2ccncc2)c(=O)n(-c2ccccc2)n1C", "Potency": "inconclusive: 39.8 µM [quencher, side channel, single point]"}
{"molecule": "CC(=O)C1=C(O)C(=O)N(c2nccs2)C1c1ccc(Br)cc1", "note": "(centres undefined)", "Potency": "inconclusive: 35.5 µM [quencher, single point]"}
{"molecule": "COc1cccc(CCNC(=O)c2cc(COc3c(F)cccc3F)on2)c1", "Potency": "inactive"}
{"molecule": "CN1C(=O)NC(c2cccc(F)c2)C2=C1CC(C)(C)CC2=O", "note": "(centres undefined)", "Potency": "inactive"}
{"molecule": "CC1CCN(C(=O)Cn2cc3c(n2)CCCC3)CC1", "Potency": "inconclusive: 39.8 µM [quencher, side channel, partial curve, poor fit]"}
{"molecule": "COc1ccc(/C=C/C(=O)Nc2ccccc2C(=O)O)cc1", "Potency": "inconclusive: 31.6 µM [quencher, side channel, single point]"}
{"molecule": "CN(C)CCNC(=O)c1coc(=O)c(Br)c1", "Potency": "inconclusive: 35.5 µM [quencher, side channel, single point]"}
{"molecule": "O=C(Cn1ncc(N2CCOCC2)c(Br)c1=O)c1ccc(Cl)cc1", "Potency": "inconclusive: 17.8 µM [quencher, side channel, partial curve]"}
{"molecule": "CC(=O)Nc1sc(/C(C#N)=C/c2ccc(Cl)c(Cl)c2)nc1-c1ccc(C)cc1", "Potency": "inconclusive: 1.26 µM [fluorescent, side channel, full curve]"}
{"molecule": "O=[N+]([O-])c1ccc(CN2CCN(c3ccc4ccccc4n3)CC2)cc1", "Potency": "inactive"}
{"molecule": "CCS(=O)(=O)Nc1ccc(C2=NN(S(C)(=O)=O)C(c3cccs3)C2)cc1", "note": "(centres undefined)", "Potency": "inconclusive: 28.2 µM [quencher, side channel, single point]"}
{"molecule": "COc1ccccc1C(=O)NCC(=O)OCCCOC(=O)CNC(=O)c1ccccc1OC", "Potency": "inactive"}
{"molecule": "O=[N+]([O-])c1cccc(/C=N/NS(=O)(=O)c2ccccc2)c1", "Potency": "inconclusive: 25.1 µM [quencher, side channel, partial curve]"}
{"molecule": "O=c1c(=Nc2ccccc2O)c(=O)c2ccccc12", "Potency": "inconclusive: 14.1 µM [quencher, side channel, partial curve]"}
{"molecule": "CCOC(=O)C1CC(c2ccc(Cl)cc2)=NNC1=O", "note": "(centres undefined)", "Potency": "inactive"}
{"molecule": "O=C(c1ccc2nc(Cc3ccccc3F)oc2c1)N1CC[C@H](O)C1", "Potency": "inactive"}
{"molecule": "COc1cc(C)c2c(c1C=O)Oc1c(c(C)c(O)c3c1C(O)OC3=O)OC2=O", "note": "(centres undefined)", "Potency": "inconclusive: 79.4 µM [inhibitor, single point]"}
{"molecule": "CCCC(=O)OCC(=O)Nc1cc([N+](=O)[O-])ccc1OC", "Potency": "inconclusive: 17.8 µM [quencher, side channel, partial curve]"}
{"molecule": "C/C(=N\\NC(=O)c1cccc(C)c1O)c1ccc(NC(=O)Cc2ccccc2)cc1", "Potency": "inactive"}
{"molecule": "C=CCNC(=O)C1CCN(c2ccc(S(=O)(=O)N3CCOCC3)cc2[N+](=O)[O-])CC1", "Potency": "inconclusive: 12.6 µM [quencher, side channel, partial curve]"}
{"molecule": "Nc1c(-c2ccccc2)cnc2c(-c3ccccc3)cnn12", "Potency": "inactive"}
{"molecule": "COc1ccc(C2CC(c3ccccc3)=NN2S(=O)(=O)c2ccc(C)cc2)c(OC)c1", "note": "(centres undefined)", "Potency": "inconclusive: 79.4 µM [inhibitor, partial curve]"}
{"molecule": "CC(C)Oc1ccc(CNC(=S)N/N=C/c2ccc([N+](=O)[O-])cc2)cc1", "Potency": "inactive"}
{"molecule": "COc1cc2cc(CN(Cc3cccs3)C(=S)Nc3ccc(C)cc3)c(=O)[nH]c2cc1OC", "Potency": "inconclusive: 7.08 µM [fluorescent, side channel, single point]"}
{"molecule": "COc1cccc(NC(=S)Nc2cccc3ccccc23)c1", "Potency": "inconclusive: 31.6 µM [quencher, single point]"}
{"molecule": "CCN(C(=O)C(C)N1C(=O)/C(=C/c2cccs2)SC1=S)C1CCS(=O)(=O)C1", "note": "(centres undefined)", "Potency": "inconclusive: 8.91 µM [quencher, side channel, partial curve]"}
{"molecule": "COc1ccccc1-n1c(C)cc(/C=C2\\C(=N)N3N=C(CC(=O)N4CCOCC4)SC3=NC2=O)c1C", "Potency": "inconclusive: 25.1 µM [quencher, single point]"}
{"molecule": "CC(C)NC(=O)/C(C#N)=C/c1ccc(N(C)C)o1", "Potency": "inconclusive: 15.8 µM [quencher, side channel, partial curve]"}
{"molecule": "NNC(=O)c1ccc(COc2ccc([N+](=O)[O-])cc2)o1", "Potency": "inconclusive: 17.8 µM [quencher, side channel, partial curve]"}
{"molecule": "NS(=O)(=O)c1ccc(NC(=O)c2c(Cl)cccc2Cl)cc1", "Potency": "inactive"}
{"molecule": "O=C(Nc1cccc(-c2cccc(F)c2)c1)C1CCN(C2CCC2)CC1", "Potency": "inactive"}
{"molecule": "CCOC(=O)N/N=C/c1cn(Cc2ccccc2Cl)c2ccccc12", "activity change, negative = inhibition": "inconclusive: 3.63% [phenotype inactive]"}
{"molecule": "CC(=O)/C=C\\c1ccccc1OC(=O)c1cc2ccccc2oc1=O", "Potency": "inconclusive: 3.16 µM [quencher, side channel, full curve]"}
{"molecule": "Cc1ccsc1/C=N/n1c(-c2ccco2)n[nH]c1=S", "Potency": "inactive"}
{"molecule": "CCN1/C(=C2/SC(=S)N(NC(C)=O)C2=O)Sc2ccccc21", "Potency": "inconclusive: 6.31 µM [quencher, side channel, full curve, poor fit]"}
{"molecule": "O=Nc1c(-c2ccccc2)[nH]n(-c2ccccc2)c1=O", "Potency": "inconclusive: 25.1 µM [quencher, side channel, single point]"}
{"molecule": "COc1cc(-c2ccc(Nc3ccccc3C(=O)O)c(OC)c2)ccc1Nc1ccccc1C(=O)O", "Potency": "inactive"}
{"molecule": "CNc1ccc(Br)cc(C(=O)/C=C/c2ccc(Cl)cc2Cl)c1=O", "Potency": "inactive"}
{"molecule": "C=CCN=c1scc(-c2ccc3c(c2)NC(=O)CO3)n1/N=C(\\C)c1ccccn1", "Potency": "inactive"}
{"molecule": "CC1(OC(=O)C2CCCC2)C(=O)C=C2C=C(c3ccsc3)N(CCCCO)C=C2C1=O", "note": "(centres undefined)", "Potency": "inconclusive: 12.6 µM [quencher, side channel, partial curve]"}
{"molecule": "Cc1ccc2nc(C)cc(Nc3ccc([N+](=O)[O-])cc3)c2c1", "Potency": "inconclusive: 3.55 µM [quencher, side channel, full curve, poor fit]"}
{"molecule": "COc1cc(/C=N/NC(=O)c2cccc([N+](=O)[O-])c2)ccc1O", "Potency": "inconclusive: 15.8 µM [quencher, side channel, partial curve]"}
{"molecule": "Cc1cc(N/N=C/c2ccc3c(c2)OCO3)nc2ccccc12", "Potency": "inactive"}
{"molecule": "COc1cc([N+](=O)[O-])ccc1NC(=O)CN1CCOCC1", "Potency": "inconclusive: 10 µM [quencher, side channel, partial curve]"}
{"molecule": "CCc1ccc(/C=C2/Sc3ccccc3N(CC(=O)NCC3CCCO3)C2=O)cc1", "note": "(centres undefined)", "Potency": "inconclusive: 11.2 µM [quencher, side channel, partial curve]"}
{"molecule": "CC(C)c1ccc(Nc2c([N+](=O)[O-])c(=O)n(C)c3ccccc23)cc1", "Potency": "inconclusive: 20 µM [quencher, side channel, partial curve]"}
{"molecule": "Cc1[nH]c2ccccc2c1C(c1ccccn1)c1c(C)[nH]c2ccccc12", "Potency": "inconclusive: 15.8 µM [quencher, side channel, partial curve]"}
{"molecule": "Cc1cccc2c1N(CCOc1ccc(C(C)(C)C)cc1)C(=O)C2=O", "Potency": "inconclusive: 0.1 µM [fluorescent, side channel, partial curve]"}
{"molecule": "C/C(=C/c1oc2ccc(O)cc2c1[N+](=O)[O-])N(C)C", "Potency": "inconclusive: 10 µM [quencher, side channel, partial curve]"}
{"molecule": "Cc1ccc(/C=C2/SC(=S)N(CCC(=O)NCCCN3CCOCC3)C2=O)cc1", "Potency": "inconclusive: 39.8 µM [quencher, single point]"}
{"molecule": "CC1CCN(CC(=O)Nc2cccc([N+](=O)[O-])c2)CC1", "Potency": "inconclusive: 31.6 µM [quencher, side channel, single point]"}
{"molecule": "Cc1ccc(S(=O)(=O)C(C#N)c2nc3ccccc3nc2N2CCCC2)cc1", "note": "(centres undefined)", "Potency": "inconclusive: 28.2 µM [quencher, single point]"}
{"molecule": "Nc1ccc2c(c1)C(=O)N(CC1CCCO1)C2=O", "note": "(centres undefined)", "Potency": "inconclusive: 10 µM [quencher, side channel, partial curve, poor fit]"}
{"molecule": "COCCNC(=O)c1c(NC(=O)c2nc(SC)ncc2Cl)sc2c1CCCC2", "Potency": "inconclusive: 39.8 µM [quencher, side channel, single point]"}
{"molecule": "COc1ccc(-n2c(SCC(=O)Nc3ccc(C(N)=O)cc3)nc3c([nH]c4ccccc43)c2=O)cc1OC", "Potency": "inconclusive: 39.8 µM [quencher, side channel, single point]"}
{"molecule": "Cc1ccc(C(=O)O)cc1N1C(=O)c2cccc3c([N+](=O)[O-])ccc(c23)C1=O", "Potency": "inconclusive: 14.1 µM [quencher, side channel, partial curve]"}
{"molecule": "CC(=O)c1ccc(/C=C/c2nc3ccccc3n2C)o1", "Potency": "inconclusive: 25.1 µM [quencher, side channel, partial curve]"}
{"molecule": "C=CCN1C(=O)C(O)(CC(=O)c2ccccc2)c2ccccc21", "note": "(centres undefined)", "Potency": "inactive"}
{"molecule": "CCc1ccc(OCC(=O)N/N=C(\\C)c2ccc(O)cc2O)cc1", "Potency": "inactive"}
{"molecule": "Clc1ccc(-c2nc(N3CCCCC3)nc3ccccc23)cc1", "Potency": "inactive"}
{"molecule": "CCCOC(=O)c1c(N)sc(C(=O)OCC)c1C", "Potency": "inactive"}
{"molecule": "CCOc1cccc(=O)c2c(C)n(CC3CCCO3)c(C)c12", "note": "(centres undefined)", "Potency": "inconclusive: 20 µM [quencher, side channel, single point]"}
{"molecule": "Cc1ccc(Cl)cc1NC(=O)C(Cc1ccccc1)N1C(=O)C2C3CCC(C3)C2C1=O", "note": "(centres undefined)", "Potency": "inconclusive: 3.55 µM [quencher, side channel, full curve]"}
